In PubChem BioAssay AID488969 (Vanderbilt High Throughput Screening Facility, 2010) one finds z-score data, which are given here for 110 molecules.

Structures are written as SMILES. The full ranking holds about 110,000 compounds; the median of “z-score” is about -0.1, and the highest 2% start at about 2. The list shows a part of the results. Activity calls are given as the source filed them.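 How the source made its calls: active means z-score in the third read window above 3 or below -3; inactive means the rest.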

This assay deals with Metabotropic glutamate receptor 8 (Rattus norvegicus) (UniProt P70579). The experiment in a line: rat mGluR8 modulators via GIRK flux, primary screen, cell-based, thallium flux, HTS (AID 488969). Particulars: HEK293 rat mGluR8, GIRK (G protein-gated inwardly rectifying potassium channel) thallium flux, FluoZin2; at 10 µM; stronger effect = higher value; submaximal glutamate (EC20) added with thallium.
UniProt P70579, sequence (P70579 whole entry, looked up): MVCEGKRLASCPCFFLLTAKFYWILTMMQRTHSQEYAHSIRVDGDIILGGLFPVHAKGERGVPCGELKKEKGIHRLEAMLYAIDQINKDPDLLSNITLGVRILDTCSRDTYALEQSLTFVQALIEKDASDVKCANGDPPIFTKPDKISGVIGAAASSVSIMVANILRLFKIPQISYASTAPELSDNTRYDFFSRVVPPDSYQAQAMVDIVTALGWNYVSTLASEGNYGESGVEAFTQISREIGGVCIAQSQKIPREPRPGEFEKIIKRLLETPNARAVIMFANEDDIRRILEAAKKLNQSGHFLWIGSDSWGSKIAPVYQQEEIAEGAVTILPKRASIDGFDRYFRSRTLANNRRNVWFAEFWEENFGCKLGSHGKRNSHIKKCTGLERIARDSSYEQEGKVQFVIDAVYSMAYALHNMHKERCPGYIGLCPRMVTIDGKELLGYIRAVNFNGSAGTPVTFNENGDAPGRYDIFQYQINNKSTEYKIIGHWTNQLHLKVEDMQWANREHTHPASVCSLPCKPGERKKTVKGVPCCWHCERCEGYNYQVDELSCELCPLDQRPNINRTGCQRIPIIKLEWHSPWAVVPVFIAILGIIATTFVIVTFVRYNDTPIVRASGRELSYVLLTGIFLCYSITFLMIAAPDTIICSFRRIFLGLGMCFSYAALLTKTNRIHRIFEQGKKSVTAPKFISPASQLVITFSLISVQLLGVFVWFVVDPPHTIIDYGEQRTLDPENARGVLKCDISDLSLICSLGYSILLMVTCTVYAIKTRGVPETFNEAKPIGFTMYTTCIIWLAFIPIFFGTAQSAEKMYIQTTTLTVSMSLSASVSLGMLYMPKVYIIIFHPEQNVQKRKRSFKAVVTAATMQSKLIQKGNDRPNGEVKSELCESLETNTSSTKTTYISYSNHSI
`CC(C(=O)N1CCc2ccccc21)n1cccc1` (stereo not given) returned a z-score of -0.0362.
`C/C(=N\N=C\c1ccccc1F)c1nnn(-c2nonc2N)c1C` came in with a z-score of -0.168.
The molecule `Cc1nc2ccc(NC(=O)N(C(C)C)C(C)C)cc2s1` came in with a z-score of -0.168.
Turning to `O=C(Nc1c(C(=O)N2CCCC2)cnn1-c1ccccc1)c1cccc(F)c1`, the z-score is 0.436.
For `Cc1ccc(-n2nc3c(=S)[nH]nc(C)c3c2C)cc1`, the z-score was -0.105.
The value for `CCOc1ccc(S(=O)(=O)NCc2ccncc2)cc1` was 0.258; that for `Cc1csc(NC(=O)C2C3C=CC(O3)C2C(=O)O)n1` (stereo not given) was -0.371.
Take `COC(=O)c1ccc(NC(=O)CN2C(=O)CSC2=O)cc1`: the z-score was found to be 0.132.
In turn, `Cc1nc2ccccn2c1P(=O)(N1CCCCC1)N1CCCCC1` yielded a z-score of 0.254.
`O=C(COc1ccc(S(=O)(=O)NC2CCCCC2)cc1)N1CCN(c2ccc(F)cc2)CC1`: the z-score is -0.287.
In the case of `FC(F)(F)c1ccc(Oc2ccc3ccccc3c2Br)nc1`, the z-score was -0.14.
The value for `CCOC(=O)c1ccccc1NC(=O)CSc1nnnn1C` was 0.00648; that for `O=C(O)c1cc([N+](=O)[O-])ccc1C(=O)Nc1ccccc1` was -0.0661; that for `Nc1ccccc1C#Cc1ccccc1` was -0.191.
The value for `CCN(CC)c1ccc(/C=N/n2nnnc2N)c(O)c1` was -1.41; that for `CCn1c(SCC(=O)N/N=C/c2c[nH]c3ccccc23)nnc1-c1ccc(C(C)(C)C)cc1` was -2.08.
Consider `CCn1nnc(-c2ccccc2NC(=O)c2cc(OC)c(OC)c(OC)c2)n1`, for which the z-score is -1.03.
In turn, `Cc1ccc(OCC(O)CNC(=O)c2ccccc2C(=O)O)cc1` (stereo not given) registered a z-score of -0.385.
`COC(=O)c1ccc(-n2c(C)cc(-c3csc(NC(=O)c4ccc(S(=O)(=O)N(C)C)cc4)n3)c2C)cc1` came in with a z-score of -0.348.
As for `O=C(Cc1cccc2ccccc12)Nc1ccccc1C(=O)O`, the z-score is -0.592.
`Cn1cc(CN2CCc3ccccc3C2)c2ccccc21`: the z-score is 0.58.
The value for `O=C1N(Cc2ccc(F)cc2Cl)c2ccccc2C12OCCCO2` was 0.123; that for `CCCN(CCC)CCCNS(=O)(=O)c1ccc2c(c1)oc(=O)n2C` was -0.682; that for `Cc1ccc(-n2nnnc2-c2cnc3ccc(Cl)cc3c2-c2ccccc2)cc1` was -0.158.
Molecule `COc1ccc(-n2cnnc2SCC(=O)Nc2nc(C)c(Cl)cc2Cl)cc1` gave a z-score of -0.259.
`Cc1c(NC(=O)c2cc3nc(-c4ccc(Cl)cc4)cc(C(F)(F)F)n3n2)c(=O)n(-c2ccccc2)n1C` gave a z-score of -0.18.
Molecule `COc1ccccc1NC(=O)C1=C(C)NC(SCC(=O)c2ccc(C)cc2)=C(C#N)C1c1ccco1` (stereo not given) registered a z-score of -0.301.
As for `CCN(C(=O)c1cn(CC)c(=O)c2cc(OC)c(OC)cc12)c1ccccc1C`, the z-score is -0.561.
`CC(=O)CCc1c[nH]c2c(C(=O)O)cccc12` registered a z-score of 0.0101.
The value for `CC1(C)Cc2c(sc3nc4n(c(=N)c23)CCC4)CO1` was -0.0375; that for `Cc1ccc(CSCC(=O)NCc2cccnc2)cc1` was -0.00593.
Molecule `O=C(NCC(=O)N(Cc1cccs1)C(C(=O)NC1CCCC1)c1ccncc1)c1ccco1` (stereo not given) yielded a z-score of 0.432.
On to `O=C(Nc1cccnc1)c1noc2c1CCCCC2`, for which the z-score is -0.366.
The value for `O=C(NCc1ccco1)c1ccc(S(=O)(=O)c2cccc(S(=O)(=O)N3CCOCC3)c2)cc1` was 0.0723; that for `Cc1ccc(C(=O)COc2ccccc2-c2ccccc2)cc1C` was -0.198.
Turning to `Cc1cc2ccccc2c(=O)n1CC(=O)NCc1ccco1`, the z-score was -1.13.
In the case of `N#Cc1c2c(c[nH]c1=O)CCN2Cc1ccccc1`, the z-score was -2.26.
The value for `O=C1Cc2ccccc2C(=O)N1CCc1ccccc1` was 0.155.
The molecule `CCC(C)(C)n1nnnc1CN1CCN(c2nc3cc(OC)ccc3cc2C#N)CC1` registered a z-score of -1.2.
The value for `C=C(C)c1cccc(C(C)(C)NC(=O)Nc2ccc(Cl)cn2)c1` was -0.222; that for `COc1ccc(NC(=O)CN2CCC3(O)CCCCC3C2c2ccccc2OC)cc1` (stereo not given) was -0.286.
For the molecule `O=C(CCC1CCCC1)NCCCN1CCOCC1`, the z-score was -0.00267.
The value for `Cc1cc(NC(=O)CSc2nnc(COc3cccc(C)c3C)n2Cc2ccco2)no1` was -0.155.
In the case of `O=C(N/N=C/c1ccc(Br)o1)/C(=C/c1ccc([N+](=O)[O-])cc1)NC(=O)c1ccccc1`, the z-score is -0.162.
Molecule `O=c1c(CN2CCN(Cc3ccccc3)CC2)coc2ccc(Cl)cc12` registered a z-score of -0.714.
As to `CC1=CC(=O)C=CC1(C)C(Cl)(Cl)Cl` (stereo not given), the z-score is -0.171.
The value for `N/C(Cc1ccc(Cl)cc1)=N\OC(=O)c1cccc2ccccc12` was -0.0256; that for `CC(C)N1CCC(=NNC(=O)c2ccc(Br)o2)CC1` was 0.407.
In turn, `COc1ccc(OC)c(NC(=O)c2cc3sccc3n2C)c1` gave a z-score of -0.233.
Consider `Cn1c(=O)c2c(nc(NCc3ccco3)n2CC(O)COc2ccccc2)n(C)c1=O` (stereo not given), for which the z-score is -0.558.
Regarding `CCn1c2ccc(/C(C)=N\O)cc2c2cc(/C(C)=N\O)ccc21`, the z-score is -0.282.
The value for `O=C(NCc1ccccc1Cl)c1ccc2c(=O)n(CCCN3CCCC3=O)c(=S)[nH]c2c1` was -0.38; that for `O=C(O)CN1CCN(Cc2ccc(F)cc2Cl)C1=O` was 0.135.
`CCOC(=O)c1sc(SCC(=O)Nc2ccc(N(C)C)cc2)nc1N` yielded a z-score of -1.68.
The value for `[N-]=[N+]=CC(=O)C(Cc1ccccc1)N1C(=O)c2ccccc2C1=O` (stereo not given) was -0.28; that for `CCc1nc(SCc2ccc(F)cc2)[nH]c(=O)c1C#N` was active: -5.68; that for `C=CCn1c(SCc2ccccc2)nc2scc(-c3ccc(C)o3)c2c1=O` was -0.00781.
For `CC(=O)N(c1ccc(Br)cc1)C1C=CS(=O)(=O)C1` (stereo not given), the z-score came to 0.218.
In the case of `Cc1cccc(NC(=O)N(Cc2nc3ccccc3c(=O)[nH]2)C2CCCC2)c1`, the z-score was determined as 2.35.
In turn, `N#Cc1ccccc1CSc1ccc(-c2nc3ccccc3[nH]2)cn1` gave a z-score of -0.154.
For `O=C(CCN1CCN(c2ccccc2)CC1)Nc1ccc(OCc2ccccc2)cc1`, the z-score was -0.117.
The value for `CCOC(=O)C1=NN(c2ccc(F)cc2)C2=NC(C)=C(C(=O)OC)C(c3cccs3)N12` (stereo not given) was -0.0892.
Consider `Cc1c(N2C(=O)CS/C2=N\N=C\c2ccccc2O)c(=O)n(-c2ccccc2)n1C`, for which the z-score was active: 3.28.
The value for `Cc1ccc(NC(=O)COC(=O)c2ccc(OCc3c(C)noc3C)cc2)cc1S(=O)(=O)N1CCOCC1` was -1.34; that for `COc1ccccc1NC(=S)NC(=O)C1CC1` was -0.133.
In the case of `CC(=O)Nc1ccc(S(=O)(=O)NC2(C(F)(F)F)NC(=O)N(c3ccc(Cl)cc3)C2=O)cc1` (stereo not given), the z-score was -0.0337.
`S=C(NCCSCc1ccccc1Cl)Nc1ccccc1` registered a z-score of 0.36.
The value for `O=C(Nc1ccc(Br)cn1)c1ccc2nccnc2c1` was 0.228.
The value for `CCc1ccc(-c2nc(NC(=S)NC(=O)c3cccs3)sc2C)cc1` was 0.595; that for `CCCn1cnc2sc(C(N)=O)c(C)c2c1=O` was -0.0708.
Take `Cc1cccc(/C=N\NC(=O)c2csnn2)c1`: the z-score was -0.116.
For `CCOC(=O)C1=C(C)Nc2nc(=S)[nH]n2C1c1ccc(Cl)cc1` (stereo not given), the z-score is -0.454.
In turn, `CCOC(=O)c1ccc(NC(=O)COC(=O)Cc2csc(-c3ccccc3)n2)cc1` had a z-score of -0.252.
As to `COc1ccc(C2N(c3ccc(F)cc3)C(=O)C3CCCN32)cc1` (stereo not given), the z-score turned out to be 0.719.
The value for `CCN1/C(=C2\C(=O)N(C)C(=S)N2C)C=Cc2cc(OC)ccc21` was -0.193; that for `CN1CCN(NS(=O)(=O)c2ccc(Cl)s2)CC1` was -0.145.
Consider `CCC(C)(C)n1nnnc1C(c1ccccc1OC)N1CCSCC1` (stereo not given), for which the z-score came out at 0.0085.
Take `CCN1CCN(c2cc(C)c3cc(NC(=O)c4ccc(Br)o4)ccc3n2)CC1`: the z-score was active: 3.44.
For `COc1cc(/C=N\NC(=O)CNC(=O)C2COc3ccccc3O2)ccc1O` (stereo not given), the z-score is -0.838.
For `COc1cccc(NC(=O)CSc2nnc(Cc3cccs3)n2-c2ccc(C)cc2)c1`, the z-score was -0.673.
Turning to `O=C(Nc1ccccc1Cc1ccccc1)C1CC(=O)N(c2ccc3c(c2)OCCO3)C1` (stereo not given), the z-score was -0.153.
As to `Cc1ccc(-n2sc3ccccc3c2=O)cc1`, the z-score was -0.306.
`COc1nnc(-c2ccc(N3CCOCC3)c(NC(=O)c3ccco3)c2)c2ccccc12`: the z-score was -2.65.
In the case of `CCCOc1ccc(N2C(=O)CC(NCc3cccs3)C2=O)cc1` (stereo not given), the z-score was found to be 0.967.
On to `O=C(Oc1ccc(Cl)cc1)c1ccc2nccnc2c1`, for which the z-score is -0.0816.
On to `CCOC(=O)C1=C(C)NC(SCC(=O)Nc2nc(C)cs2)=C(C#N)C1c1cccs1` (stereo not given), for which the z-score is -0.832.
In the case of `COc1ccc(N(CC(=O)O)S(=O)(=O)c2ccc(OC)c(OC)c2)cc1`, the z-score came out at 0.0339.
In turn, `CCOC(=O)NC(=O)CSc1nc(-c2ccc(C)c(C)c2)cn1-c1ccccc1` returned a z-score of 1.15.
`FC(F)(F)c1ccc(CN2CCCCCC2)cc1` returned a z-score of 0.053.
`CCN(/N=C/c1ccc(Cl)cc1)c1cc(=O)n(C)c(=O)[nH]1` yielded a z-score of -0.289.
Consider `CC1(C)CC2CC(C)(CN2C(=O)Cc2ccccc2)C1` (stereo not given), for which the z-score was -0.0313.
In the case of `O=C(CSc1ncnc2ccccc12)NCc1ccco1`, the z-score came to 0.0729.
Regarding `O=C(c1ccccc1)N1CCCC(C(=O)N2CCCCCC2)C1` (stereo not given), the z-score was determined as 0.478.
The value for `Cc1ccc(N(CC(=O)N/N=C/c2ccco2)S(=O)(=O)c2ccccc2)cc1` was -0.0917; that for `O=C(CSc1nnc(COc2cccc3ccccc23)o1)N1c2ccccc2CCc2ccccc21` was 1.22; that for `COc1ccc(C2=NN3C(C2)c2ccccc2OC32C(=O)N(C)c3ccccc32)cc1` (stereo not given) was -0.118.
In the case of `O=C(NCc1ccccc1)c1cccc(COc2cc(Cl)ccc2Cl)c1`, the z-score was -0.278.
Molecule `COc1ccc(NC(=O)CN(Cc2ccccc2)S(C)(=O)=O)c(OC)c1` yielded a z-score of -0.052.
As for `Cc1ccc(N2C(N)=C(C#N)C3(C(=O)N(C)c4ccccc43)C3=C2CC(C)(C)CC3=O)cc1Cl` (stereo not given), the z-score is -2.04.
`COc1cccc(C2=Nc3cccc4cccc(c34)N2)c1` yielded a z-score of -0.506.
Regarding `CON1C(=O)C(=O)N(OC)C(C)(C)C1(C)C`, the z-score is -0.132.
For `COc1cc(Cl)c(C)cc1NC(=O)CCCn1c(=O)oc2ccccc21`, the z-score was -0.249.
Turning to `c1ccc(C2CC(c3cccs3)n3nnnc3N2)cc1` (stereo not given), the z-score is -0.646.
Molecule `COc1ccccc1N1CCN(C(=O)CSc2nc3ncnc(N)c3[nH]2)CC1` showed a z-score of -1.12.
The value for `CCc1cc2c(-n3nc(C)cc3C)ncnc2s1` was 0.0531; that for `CN(CC(=O)O/N=C(\N)c1ccc([N+](=O)[O-])cc1)S(=O)(=O)c1ccccc1` was -0.0101; that for `CS(=O)(=O)N(CC(=O)N1CCCC1)c1cccc(Cl)c1Cl` was -1.92.
The value for `COC(=O)c1[nH]c2cc(OC)ccc2c1NC(=O)c1nonc1C` was 0.0286; that for `COc1cc(C2C(C(=O)N3CCOCC3)=C(C)NC3=C2C(=O)CCC3)ccc1OC(C)=O` (stereo not given) was 0.401; that for `CN1CC(=O)NC1=NC(=O)C12CC3CC(CC(C3)C1)C2` was 0.29.
